Experimental data taken from article PMC7595586.
Changes are numbered by the printed parent chain. Names and notes keep the numbering of the source. No constants are given. Whether binding was seen depends on the method and setting. For part of these data: Binding seen in cells or lysates may run through a third protein. Some entries that bind do so weakly or less than the wild type. Tags and fused reporters may be left off the sequences shown.

Experiments:
[1] = target: T1, Atg38, yeast two-hybrid fusion (S. pombe) (UniProt O94427); test: two-hybrid; … Two-Hybrid System 3, modified pGBKT7 bait and pGADT7 prey, strain AH109; HIS3 and ADE2 reporters on triple and quadruple dropout media
T1 sequence: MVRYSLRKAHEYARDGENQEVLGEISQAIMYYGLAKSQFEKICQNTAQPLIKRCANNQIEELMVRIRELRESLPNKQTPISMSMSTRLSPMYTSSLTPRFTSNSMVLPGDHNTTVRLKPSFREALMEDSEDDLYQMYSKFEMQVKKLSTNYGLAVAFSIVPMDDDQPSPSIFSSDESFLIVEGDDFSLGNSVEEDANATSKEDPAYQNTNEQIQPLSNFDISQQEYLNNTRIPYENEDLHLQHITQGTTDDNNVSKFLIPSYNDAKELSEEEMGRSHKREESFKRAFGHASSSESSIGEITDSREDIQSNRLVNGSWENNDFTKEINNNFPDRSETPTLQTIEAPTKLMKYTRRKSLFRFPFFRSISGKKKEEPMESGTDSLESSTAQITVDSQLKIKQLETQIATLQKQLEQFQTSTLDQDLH

[2] = target: T2, Atg38 [73-212], yeast two-hybrid fusion (S. pombe) (UniProt O94427); test: as above
T2 sequence: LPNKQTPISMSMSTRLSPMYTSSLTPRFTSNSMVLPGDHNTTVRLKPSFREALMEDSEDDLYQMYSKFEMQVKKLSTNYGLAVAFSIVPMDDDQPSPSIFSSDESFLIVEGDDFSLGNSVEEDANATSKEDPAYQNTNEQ

[3] = target: T3, GST-Atg38[161–190] (S. pombe) (UniProt O94427); test: pull-down; supernatants of E. coli lysates with GST or GST-fused Atg38 constructs mixed with lysates with HA-fused Atg8 constructs, 4°C, bound to glutathione Sepharose; 1× PBS pH 7.5, 200 mM NaCl, 10% glycerol, 0.05% NP-40; blot with antibody against HA
T3 sequence: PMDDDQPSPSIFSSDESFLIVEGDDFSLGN

[4] = target: T4, GST-Atg38[161–190]^F178A,V181A (S. pombe) (UniProt O94427); test: as above
T4 sequence: T3 sequence with F18A, V21A

[5] = target: T5, mCherry-tagged wild-type Atg38 (S. pombe) (UniProt O94427); test: co-IP; S. pombe lysates (50 mM HEPES pH 7.5, 150 mM NaCl, 1 mM EDTA, 1 mM DTT, 0.05% NP-40, 10% glycerol); mCherry-tagged Atg38 precipitated with mCherry-Trap agarose beads; blots with antibody against mCherry or GFP
T5 sequence: T1 sequence

[6] = target: T6, GST-Atg38[161–190] (S. pombe), O94427; test: pull-down; supernatants of E. coli lysates with GST or GST-fused Atg38 constructs mixed with lysates with HA-fused Atg8 constructs, 4°C, bound to glutathione Sepharose; 1× PBS pH 7.5, 200 mM NaCl, 10% glycerol, 0.05% NP-40; blot with antibody against HA; conditions: remark: other sources report otherwise
T6 chain: T3 sequence

B1: Atg8, yeast two-hybrid fusion (protein, UniProt O94272 1-121)
chain: MRSQFKDDFSFEKRKTESQRIREKYPDRIPVICEKVDKSDIAAIDKKKYLVPSDLTVGQFVYVIRKRIKLSPEKAIFIFIDEILPPTAALMSTIYEEHKSEDGFLYITYSGENTFGTVFPF
Q: How did the binding [1] turn out when B1 was run?
A: binds

Q: What about the binding [2] of the same binder?
A: binds

B2: HA-Atg8 (protein, UniProt O94272 1-116)
chain: MRSQFKDDFSFEKRKTESQRIREKYPDRIPVICEKVDKSDIAAIDKKKYLVPSDLTVGQFVYVIRKRIKLSPEKAIFIFIDEILPPTAALMSTIYEEHKSEDGFLYITYSGENTFG
Q: Which binding [3] does the source give for B2 here?
A: binds

Q: What about the binding [4] of the same binder?
A: no binding

B3: GFP-tagged Atg8 (protein, UniProt O94272 1-116)
chain: B2 chain
Q: For B3, which binding [5] is on record?
A: binds

B4: HA-Atg8^P52A,R67A, O94272 1-116 (protein)
chain: B2 chain with P52A, R67A
Q: How did the binding [6] turn out when B4 was run?
A: no binding
